Results on 16 sequences are retold here after the supplement of paper PMC7726561.

Over roughly 1,100 sequences, “thermal melting temperature (Tm) of peptide-HLA complex” has its median near 58; the lowest 2% begin near 42. The list shows a part of the results.

B1: unnamed (peptide)
chain: GLWEEAYRV
B2: unnamed (peptide)
chain: QLYNQIIKL
B3: unnamed (peptide)
chain: NIIELVHQV
B4: unnamed (peptide)
chain: SLVAVELEKV
B5: unnamed (peptide)
chain: TLLEDGTFKV
B6: unnamed (peptide)
chain: YLFSEALNAA
B7: unnamed (peptide)
chain: VLFELSKTV
B8: unnamed (peptide)
chain: VLIGEFLEKV
B9: unnamed (peptide)
chain: IILEEGKEILV
B10: unnamed (peptide)
chain: NLLPHAINL
B11: unnamed (peptide)
chain: KLLNDEDQVVV
B12: unnamed (peptide)
chain: KLQELNYNL
B13: unnamed (peptide)
chain: RVLDINPQV
B14: unnamed (peptide)
chain: FLDPRPLTV
B15: unnamed (peptide)
chain: NIIPYITNV
B16: unnamed (peptide)
chain: KISTITPQI
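Further: cell lysates heated 10 min at 37–73 °C, remaining pHLA pulled down with pan-class I antibody, peptides quantified by DIA-MS versus 37 °C, Tm where half the complex is lost.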

The target in this assay is HLA-A*02:01. The assay is described as follows: thermal melting temperature (Tm) of peptide-HLA complex; higher = more thermostable pHLA complex. The settings on record: C1R-A*02:01.
In the case of B1, the thermal melting temperature came to 65.2 °C. Next, B2: 56.1 °C. Turning to B3, the thermal melting temperature is 57.1 °C. Consider B4, for which the thermal melting temperature was determined as 57.5 °C.

As to B5, the thermal melting temperature was determined as 59.5 °C. B6 registered a thermal melting temperature of 60.8 °C. Next, B7: 44.4 °C; B8: 46.1 °C. B9 registered a thermal melting temperature of 52.2 °C. Consider B10, for which the thermal melting temperature turned out to be 57.8 °C.

B11 registered a thermal melting temperature of 53.6 °C. The sequence B12 yielded a thermal melting temperature of 60.1 °C. B13 had a thermal melting temperature of 57 °C.

Sequence B14 had a thermal melting temperature of 63.2 °C. In the case of B15 it was 51.4 °C; in that of B16, 47.1 °C.
